The values that follow come from PMC3958441, “Isl1 and Pou4f2 Form a Complex to Regulate Target Genes in Developing Retinal Ganglion Cells” (PLoS ONE, 2014).

T1: GST-Pou4f2 fusion protein (mouse) (UniProt Q63934)
T1 sequence: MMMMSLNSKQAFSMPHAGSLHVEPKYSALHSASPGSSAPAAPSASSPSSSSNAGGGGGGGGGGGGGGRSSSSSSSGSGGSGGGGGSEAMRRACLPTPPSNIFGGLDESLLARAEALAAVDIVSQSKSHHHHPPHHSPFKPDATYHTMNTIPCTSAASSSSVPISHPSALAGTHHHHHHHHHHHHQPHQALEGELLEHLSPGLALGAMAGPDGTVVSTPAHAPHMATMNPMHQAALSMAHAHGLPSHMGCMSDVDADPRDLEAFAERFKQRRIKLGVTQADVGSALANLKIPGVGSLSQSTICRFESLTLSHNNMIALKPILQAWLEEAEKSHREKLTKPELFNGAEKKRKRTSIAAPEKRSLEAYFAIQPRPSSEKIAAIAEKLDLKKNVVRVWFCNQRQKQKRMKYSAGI

T2: GST-Isl1 fusion protein (mouse) (UniProt P61372)
T2 sequence: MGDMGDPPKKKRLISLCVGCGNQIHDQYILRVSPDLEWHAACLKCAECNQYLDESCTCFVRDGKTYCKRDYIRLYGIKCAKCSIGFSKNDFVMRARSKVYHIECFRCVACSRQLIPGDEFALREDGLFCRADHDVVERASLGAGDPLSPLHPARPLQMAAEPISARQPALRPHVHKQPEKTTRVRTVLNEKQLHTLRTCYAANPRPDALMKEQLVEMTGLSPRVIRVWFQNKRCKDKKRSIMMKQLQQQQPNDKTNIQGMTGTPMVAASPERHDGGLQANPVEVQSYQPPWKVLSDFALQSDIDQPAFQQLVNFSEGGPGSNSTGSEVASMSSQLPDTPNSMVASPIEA

B1: Pou4f2D4 (a.a. 169-411) (domain or fragment, UniProt Q63934 169-411)
chain: LAGTHHHHHHHHHHHHQPHQALEGELLEHLSPGLALGAMAGPDGTVVSTPAHAPHMATMNPMHQAALSMAHAHGLPSHMGCMSDVDADPRDLEAFAERFKQRRIKLGVTQADVGSALANLKIPGVGSLSQSTICRFESLTLSHNNMIALKPILQAWLEEAEKSHREKLTKPELFNGAEKKRKRTSIAAPEKRSLEAYFAIQPRPSSEKIAAIAEKLDLKKNVVRVWFCNQRQKQKRMKYSAGI
B2: Pou4f2D1 (a.a. 1-260) (domain or fragment, UniProt Q63934 1-260)
chain: MMMMSLNSKQAFSMPHAGSLHVEPKYSALHSASPGSSAPAAPSASSPSSSSNAGGGGGGGGGGGGGGRSSSSSSSGSGGSGGGGGSEAMRRACLPTPPSNIFGGLDESLLARAEALAAVDIVSQSKSHHHHPPHHSPFKPDATYHTMNTIPCTSAASSSSVPISHPSALAGTHHHHHHHHHHHHQPHQALEGELLEHLSPGLALGAMAGPDGTVVSTPAHAPHMATMNPMHQAALSMAHAHGLPSHMGCMSDVDADPRDL
B3: Pou4f2D2 (a.a. 1-330) (domain or fragment, UniProt Q63934 1-330)
chain: MMMMSLNSKQAFSMPHAGSLHVEPKYSALHSASPGSSAPAAPSASSPSSSSNAGGGGGGGGGGGGGGRSSSSSSSGSGGSGGGGGSEAMRRACLPTPPSNIFGGLDESLLARAEALAAVDIVSQSKSHHHHPPHHSPFKPDATYHTMNTIPCTSAASSSSVPISHPSALAGTHHHHHHHHHHHHQPHQALEGELLEHLSPGLALGAMAGPDGTVVSTPAHAPHMATMNPMHQAALSMAHAHGLPSHMGCMSDVDADPRDLEAFAERFKQRRIKLGVTQADVGSALANLKIPGVGSLSQSTICRFESLTLSHNNMIALKPILQAWLEEAEK
B4: Isl1D3 (a.a. 170-349) (domain or fragment, mouse, UniProt P61372 170-349, looked up)
chain: LRPHVHKQPEKTTRVRTVLNEKQLHTLRTCYAANPRPDALMKEQLVEMTGLSPRVIRVWFQNKRCKDKKRSIMMKQLQQQQPNDKTNIQGMTGTPMVAASPERHDGGLQANPVEVQSYQPPWKVLSDFALQSDIDQPAFQQLVNFSEGGPGSNSTGSEVASMSSQLPDTPNSMVASPIEA
notes: Isl1, mouse, a.a; 170-349, only the homeodomain and the C terminal region, none of the Lim domains; source: E. coli, in lysate (pull-down); purified on His SpinTrap columns (EMSA); not shown: His tag, C-terminal, kept
B5: Isl1D4 (a.a. 146-349) (domain or fragment, mouse, UniProt P61372 146-349, looked up)
chain: PLSPLHPARPLQMAAEPISARQPALRPHVHKQPEKTTRVRTVLNEKQLHTLRTCYAANPRPDALMKEQLVEMTGLSPRVIRVWFQNKRCKDKKRSIMMKQLQQQQPNDKTNIQGMTGTPMVAASPERHDGGLQANPVEVQSYQPPWKVLSDFALQSDIDQPAFQQLVNFSEGGPGSNSTGSEVASMSSQLPDTPNSMVASPIEA
notes: Isl1, mouse, a.a; 146-349; source: E. coli, in lysate (pull-down); purified on His SpinTrap columns (EMSA); not shown: His tag, C-terminal, kept
B6: Lhx1, full-length, His-tagged (protein, UniProt P63006 1-406)
chain: MVHCAGCKRPILDRFLLNVLDRAWHVKCVQCCECKCNLTEKCFSREGKLYCKNDFFRCFGTKCAGCAQGISPSDLVRRARSKVFHLNCFTCMMCNKQLSTGEELYIIDENKFVCKEDYLSNSSVAKENSLHSATTGSDPSLSPDSQDPSQDDAKDSESANVSDKEGGSNENDDQNLGAKRRGPRTTIKAKQLETLKAAFAATPKPTRHIREQLAQETGLNMRVIQVWFQNRRSKERRMKQLSALGARRHAFFRSPRRMRPLVDRLEPGELIPNGPFSFYGDYQSEYYGPGGNYDFFPQGPPSSQAQTPVDLPFVPSSGPSGTPLGGLDHPLPGHHPSSEAQRFTDILAHPPGDSPSPEPSLPGPLHSMSAEVFGPSPPFSSLSVNGGASYGNHLSHPPEMNEAAVW
B7: Lhx2, full-length, His-tagged (protein, UniProt Q9Z0S2 1-406)
chain: MLFHSLSGPEVHGVIDEMDRRAKSEAPAISSAIDRGDTETTMPSISSDRAALCAGCGGKISDRYYLLAVDKQWHMRCLKCCECKLNLESELTCFSKDGSIYCKEDYYRRFSVQRCARCHLGISASEMVMRARDLVYHLNCFTCTTCNKMLTTGDHFGMKDSLVYCRLHFEALLQGEYPAHFNHADVAAAAAAAAAAKSAGLGSAGANPLGLPYYNGVGTVQKGRPRKRKSPGPGADLAAYNAALSCNENDAEHLDRDQPYPSSQKTKRMRTSFKHHQLRTMKSYFAINHNPDAKDLKQLAQKTGLTKRVLQVWFQNARAKFRRNLLRQENTGVDKTSDATLQTGTPSGPASELSNASLSPSSTPTTLTDLTSPTLPTVTSVLTSVPGNLEGHEPHSPSQTTLTNLF
B8: Isl1D5 (a.a. 74-349) (domain or fragment, mouse, UniProt P61372 74-349, looked up)
chain: LYGIKCAKCSIGFSKNDFVMRARSKVYHIECFRCVACSRQLIPGDEFALREDGLFCRADHDVVERASLGAGDPLSPLHPARPLQMAAEPISARQPALRPHVHKQPEKTTRVRTVLNEKQLHTLRTCYAANPRPDALMKEQLVEMTGLSPRVIRVWFQNKRCKDKKRSIMMKQLQQQQPNDKTNIQGMTGTPMVAASPERHDGGLQANPVEVQSYQPPWKVLSDFALQSDIDQPAFQQLVNFSEGGPGSNSTGSEVASMSSQLPDTPNSMVASPIEA
notes: Isl1, mouse, a.a; 74-349; source: E. coli, in lysate (pull-down); purified on His SpinTrap columns (EMSA); not shown: His tag, C-terminal, kept
B9: Isl1, full-length, His-tagged (natural protein, mouse, UniProt P61372 1-349, looked up)
chain: T2 sequence
notes: Isl1, mouse, full-length coding region in pET-28a(+); 349 a.a; source: E. coli, in lysate (pull-down); purified on His SpinTrap columns (EMSA); not shown: His tag, C-terminal, kept
B10: Isl2, full-length (protein, UniProt Q9CXV0 1-359)
chain: MVDIIFHYPFLGAMGDHSKKKPGTAMCVGCGSQIHDQFILRVSPDLEWHAACLKCAECSQYLDETCTCFVRDGKTYCKRDYVRLFGIKCAQCQVGFSSSDLVMRARDSVYHIECFRCSVCSRQLLPGDEFSLREHELLCRADHGLLLERAAAGSPRSPGPLPGARGLHLPDAGSGRQPSLRTHVHKQAEKTTRVRTVLNEKQLHTLRTCYAANPRPDALMKEQLVEMTGLSPRVIRVWFQNKRCKDKKKSILMKQLQQQQHSDKASLQGLTGTPLVAGSPIRHENAVQGSAVEVQTYQPPWKALSEFALQSDLDQPAFQQLVSFSESGSLGNSSGSDVTSLSSQLPDTPNSMVPSPVET
B11: Pou4f3, full-length, His-tagged (protein, UniProt Q63955 1-338)
chain: MMAMNAKQPFGMHPVLQEPKFSSLHSGSEAMRRVCLPAPQLQGNIFGSFDESLLARAEALAAVDIVSHGKNHPFKPDATYHTMSSVPCTSTSPTVPISHPAALTSHPHHAVHQGLEGDLLEHISPTLSVSGLGAPEHSVMPAQIHPHHLGAMGHLHQAMGMSHPHAVAPHSAMPACLSDVESDPRELEAFAERFKQRRIKLGVTQADVGAALANLKIPGVGSLSQSTICRFESLTLSHNNMIALKPVLQAWLEEAEAAYREKNSKPELFNGSERKRKRTSIAAPEKRSLEAYFAIQPRPSSEKIAAIAEKLDLKKNVVRVWFCNQRQKQKRMKYSAVH
B12: Pou4f2D5 (a.a. 125-411) (domain or fragment, mouse, UniProt Q63934 125-411, looked up)
chain: SKSHHHHPPHHSPFKPDATYHTMNTIPCTSAASSSSVPISHPSALAGTHHHHHHHHHHHHQPHQALEGELLEHLSPGLALGAMAGPDGTVVSTPAHAPHMATMNPMHQAALSMAHAHGLPSHMGCMSDVDADPRDLEAFAERFKQRRIKLGVTQADVGSALANLKIPGVGSLSQSTICRFESLTLSHNNMIALKPILQAWLEEAEKSHREKLTKPELFNGAEKKRKRTSIAAPEKRSLEAYFAIQPRPSSEKIAAIAEKLDLKKNVVRVWFCNQRQKQKRMKYSAGI
notes: Pou4f2, mouse, a.a; 125-411, POU and homeo domains intact; source: E. coli, in lysate (pull-down); purified on His SpinTrap columns (EMSA); not shown: His tag, C-terminal, kept
B13: Pou4f2, full-length, His-tagged (protein, UniProt Q63934 1-411)
chain: T1 sequence

Results are given in words; binding and its absence hold for the method and conditions named. For some of these results: In cells and extracts the contact can be indirect. Some results given as binding are weak or reduced against the parent protein; the word gives no strength. Tags and fused reporters may be left off the sequences shown.

The first assay concerns the target B9. Description: native gel or EMSA; EMSA with purified His-tagged proteins (200 ng each) and radiolabelled DNA probes (SBRN3, CBRN3; Ebf3 and Irx6 for Isl1 with Pou4f2D5); protein-protein complex read from a slower migrating ternary complex on DNA; 20 mM Tris-HCl pH 7.5, 0.05 M NaCl, 10 mM DTT, 1 mM EDTA, 5% glycerol, 4 C; both purified.
In the case of B1, the binding entry is on record as “binds”.

B2: the binding entry is “no binding”.

As for B3, the binding result was “no binding”.

The next assay concerns the target T1, GST-Pou4f2 fusion protein (mouse). The assay can be described thus: pull-down; GST pull-down: about 20 ug of GST or GST-fusion E. coli lysate and 20 ug of non-fusion protein lysate in 125 mM Tris-HCl, 150 mM NaCl, pH 8.0, 4 C; glutathione magnetic beads, 6 washes; Western blotting.
With B4, the binding entry is listed as “binds”.

As to B5, the binding entry is recorded as “binds”.

Regarding B6, the binding entry is listed as “no binding”.

As to B7, the binding result is on record as “binds”.

For the molecule B8, the binding entry is recorded as “binds”.

In the case of B9, the binding result is given as “binds”.

Turning to B10, the binding result was “binds”.

The next assay concerns the target T2, GST-Isl1 fusion protein (mouse). The description is as above.
Regarding B1, the binding entry is listed as “binds”.

Turning to B2, the binding result is reported as “no binding”.

As for B11, the binding entry is “binds”.

On to B12, for which the binding result is “binds”.

Turning to B3, the binding result is given as “no binding”.

With B13, the binding entry is “binds”.
